Reference: article PMC7599196
These are yes or no findings as the source states them, for the method shown. For some assays here: Binding seen in cells or lysates may run through a third protein. Some binding calls cover weakened binding; strength is not graded here. For some assays here: Sequences can lack the tags named with a protein.

Sequences of proteins named here, by UniProt entry; tags and fusion partners are left off.
UniProt P16649: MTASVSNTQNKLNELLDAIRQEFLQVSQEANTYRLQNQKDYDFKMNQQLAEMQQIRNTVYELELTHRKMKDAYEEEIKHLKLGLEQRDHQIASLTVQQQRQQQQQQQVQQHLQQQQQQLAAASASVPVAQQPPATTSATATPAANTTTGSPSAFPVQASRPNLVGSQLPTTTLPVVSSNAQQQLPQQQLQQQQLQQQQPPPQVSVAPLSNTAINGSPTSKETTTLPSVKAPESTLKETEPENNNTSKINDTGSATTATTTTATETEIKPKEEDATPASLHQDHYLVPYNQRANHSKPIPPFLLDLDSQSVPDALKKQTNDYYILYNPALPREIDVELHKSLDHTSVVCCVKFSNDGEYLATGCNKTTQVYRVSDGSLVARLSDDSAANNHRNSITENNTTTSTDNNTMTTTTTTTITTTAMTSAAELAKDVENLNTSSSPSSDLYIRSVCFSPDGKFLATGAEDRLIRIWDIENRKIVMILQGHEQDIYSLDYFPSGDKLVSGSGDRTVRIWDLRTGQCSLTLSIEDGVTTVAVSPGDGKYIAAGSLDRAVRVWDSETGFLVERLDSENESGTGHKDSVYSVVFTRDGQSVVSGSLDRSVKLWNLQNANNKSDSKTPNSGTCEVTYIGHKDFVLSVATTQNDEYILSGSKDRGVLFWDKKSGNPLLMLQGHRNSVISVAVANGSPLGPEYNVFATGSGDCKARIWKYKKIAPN

Columns and labels:
[1] = target: T1, GST-Cti6 (aa 351–506) (S. cerevisiae) (UniProt Q08923); assay: pull-down; GST fusion from E. coli immobilized on GSH Sepharose, incubated with pre-cleared total protein extract of S. cerevisiae containing the HA fusion; washing with increasing stringency, elution with 10 mM free GSH, anti-HA blot; only the target purified
T1 sequence: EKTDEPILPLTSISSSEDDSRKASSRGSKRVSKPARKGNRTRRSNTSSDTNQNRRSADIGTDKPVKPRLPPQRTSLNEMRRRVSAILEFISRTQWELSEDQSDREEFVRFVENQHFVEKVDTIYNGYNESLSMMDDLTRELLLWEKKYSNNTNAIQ

[2] = target: T2, GST-Cti6 (aa 430–506) (S. cerevisiae) (UniProt Q08923); assay: as above
T2 sequence: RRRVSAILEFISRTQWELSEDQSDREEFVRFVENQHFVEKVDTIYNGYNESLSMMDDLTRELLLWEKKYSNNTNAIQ

[3] = target: T3, GST-Cti6 fusion protein (amino acids 1–506, comprising full length) (S. cerevisiae) (UniProt Q08923); assay: as above
T3 sequence: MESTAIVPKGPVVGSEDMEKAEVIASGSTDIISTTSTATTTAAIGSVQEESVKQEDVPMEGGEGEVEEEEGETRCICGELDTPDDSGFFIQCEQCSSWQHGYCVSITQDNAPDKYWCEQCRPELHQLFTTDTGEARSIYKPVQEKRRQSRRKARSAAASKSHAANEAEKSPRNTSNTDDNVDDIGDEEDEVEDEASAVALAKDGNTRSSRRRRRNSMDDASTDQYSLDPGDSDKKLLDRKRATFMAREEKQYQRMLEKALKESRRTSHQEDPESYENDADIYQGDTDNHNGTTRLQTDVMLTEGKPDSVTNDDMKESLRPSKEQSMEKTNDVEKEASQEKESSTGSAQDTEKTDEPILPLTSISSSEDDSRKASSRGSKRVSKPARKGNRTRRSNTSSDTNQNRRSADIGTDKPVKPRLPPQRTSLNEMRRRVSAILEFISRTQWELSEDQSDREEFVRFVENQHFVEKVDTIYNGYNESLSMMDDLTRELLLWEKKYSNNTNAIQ

[4] = target: T4, GST-Cti6_(450–506) (S. cerevisiae) (UniProt Q08923); assay: as above
T4 sequence: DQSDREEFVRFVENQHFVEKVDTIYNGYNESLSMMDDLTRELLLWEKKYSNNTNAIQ

[5] = target: T5, GST-Cti6_(450–506) L481A (S. cerevisiae) (UniProt Q08923); assay: as above
T5 sequence: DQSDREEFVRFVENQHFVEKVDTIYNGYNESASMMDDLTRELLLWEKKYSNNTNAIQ

[6] = target: T6, GST-Cti6_(450–506) L491A L492A L493A (S. cerevisiae) (UniProt Q08923); assay: as above
T6 sequence: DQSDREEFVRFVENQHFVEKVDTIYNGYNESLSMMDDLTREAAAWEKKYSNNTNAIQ

[7] = target: T7, GST-Cti6_(450–506) V467A (S. cerevisiae) (UniProt Q08923); assay: as above
T7 sequence: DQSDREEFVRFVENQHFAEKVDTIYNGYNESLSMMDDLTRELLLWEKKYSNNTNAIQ

[8] = target: T3, GST-Cti6 fusion protein (amino acids 1–506, comprising full length) (S. cerevisiae); assay: pull-down; GST fusion from E. coli immobilized on GSH Sepharose, incubated with pre-cleared total protein extract of E. coli BL21 containing the HA fusion (no yeast proteins); elution with 10 mM free GSH, anti-HA blot; only the target purified
[9] = target: T8, Gal4 DBD-Sin3 (aa 1–300, containing PAH1) (S. cerevisiae) (UniProt P22579); assay: two-hybrid; strain PJ69-4A; Gal4 DBD-Sin3 (pGBD-C1) and Gal4 TAD-Cti6 (pGAD-C1); GAL2-ADE2 reporter, growth on medium without adenine, 48 h
T8 sequence: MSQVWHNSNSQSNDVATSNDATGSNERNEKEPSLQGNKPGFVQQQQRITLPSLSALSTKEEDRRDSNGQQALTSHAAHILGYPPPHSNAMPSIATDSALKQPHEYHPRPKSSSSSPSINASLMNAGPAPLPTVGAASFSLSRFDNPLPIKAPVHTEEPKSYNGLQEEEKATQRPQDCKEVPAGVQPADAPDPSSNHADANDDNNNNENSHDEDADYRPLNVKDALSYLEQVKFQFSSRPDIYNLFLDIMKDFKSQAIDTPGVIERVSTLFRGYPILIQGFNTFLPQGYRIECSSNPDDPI

[10] = target: Gal4 DBD-Sin3 (aa 301–888) (S. cerevisiae) (UniProt P22579); assay: as above
[11] = target: T4, GST-Cti6_(450–506) (S. cerevisiae); assay: pull-down; GST fusion from E. coli immobilized on GSH Sepharose, incubated with pre-cleared total protein extract of E. coli BL21 containing the HA fusion (no yeast proteins); elution with 10 mM free GSH, anti-HA blot; only the target purified
[12] = target: T3, GST-Cti6 fusion protein (amino acids 1–506, comprising full length) (S. cerevisiae); assay: pull-down; GST fusion from E. coli immobilized on GSH Sepharose, incubated with pre-cleared total protein extract of S. cerevisiae containing the HA fusion; washing with increasing stringency, elution with 10 mM free GSH, anti-HA blot; only the target purified; remark: listed apart in the source

With “HA3-Sin3 (full-length), synthesized by S. cerevisiae (from UniProt P22579 1-1536)” the binding [1] was “binds”, the binding [2] was “binds” and the binding [3] was “binds”. The binding [4] was “binds”.

For “HA3-Sin3_(301–600), PAH2 (from UniProt P22579 301-600) (domain or fragment)”, the binding [3] was “binds”, the binding [4] was “binds” and the binding [5] was “no binding”. The binding [6] was “no binding” and the binding [7] was “binds weakly”.

For “HA3-Sin3 (full-length), bacterially synthesized (from UniProt P22579 1-1536)”, the binding [8] was “binds”.

In the case of “HA3-Tup1 (full-length) (from UniProt P16649 1-713)”, the binding [8] is reported as “binds”.

B1: Gal4TAD-Cti6_(450–506) (domain or fragment, UniProt Q08923 450-506)
chain: DQSDREEFVRFVENQHFVEKVDTIYNGYNESLSMMDDLTRELLLWEKKYSNNTNAIQ
For B1, the binding [9] was “no binding” and the binding [10] was “binds”.

B2: HA3-Cyc8 (aa 1–398, TPR-containing domain) (domain or fragment, UniProt P14922 1-398)
chain: MNPGGEQTIMEQPAQQQQQQQQQQQQQQQQAAVPQQPLDPLTQSTAETWLSIASLAETLGDGDRAAMAYDATLQFNPSSAKALTSLAHLYRSRDMFQRAAELYERALLVNPELSDVWATLGHCYLMLDDLQRAYNAYQQALYHLSNPNVPKLWHGIGILYDRYGSLDYAEEAFAKVLELDPHFEKANEIYFRLGIIYKHQGKWSQALECFRYILPQPPAPLQEWDIWFQLGSVLESMGEWQGAKEAYEHVLAQNQHHAKVLQQLGCLYGMSNVQFYDPQKALDYLLKSLEADPSDATTWYHLGRVHMIRTDYTAAYDAFQQAVNRDSRNPIFWCSIGVLYYQISQYRDALDAYTRAIRLNPYISEVWYDLGTLYETCNNQLSDALDAYKQAARLDVNN
With B2 the binding [8] was “binds” and the binding [11] was “binds”.

B3: HA-tagged Sin3 (aa 1–300), PAH1 (domain or fragment, UniProt P22579 1-300)
chain: MSQVWHNSNSQSNDVATSNDATGSNERNEKEPSLQGNKPGFVQQQQRITLPSLSALSTKEEDRRDSNGQQALTSHAAHILGYPPPHSNAMPSIATDSALKQPHEYHPRPKSSSSSPSINASLMNAGPAPLPTVGAASFSLSRFDNPLPIKAPVHTEEPKSYNGLQEEEKATQRPQDCKEVPAGVQPADAPDPSSNHADANDDNNNNENSHDEDADYRPLNVKDALSYLEQVKFQFSSRPDIYNLFLDIMKDFKSQAIDTPGVIERVSTLFRGYPILIQGFNTFLPQGYRIECSSNPDDPI
B3 was tested, and the binding [12] was “binds”.

B4: Gal4 TAD-Cti6 (aa 351–506) (domain or fragment, UniProt Q08923 351-506)
chain: EKTDEPILPLTSISSSEDDSRKASSRGSKRVSKPARKGNRTRRSNTSSDTNQNRRSADIGTDKPVKPRLPPQRTSLNEMRRRVSAILEFISRTQWELSEDQSDREEFVRFVENQHFVEKVDTIYNGYNESLSMMDDLTRELLLWEKKYSNNTNAIQ
B4 was tested, and the binding [9] was “no binding” and the binding [10] was “binds”.

B5: Gal4 TAD-Cti6 (aa 430–506) (domain or fragment, UniProt Q08923 430-506)
chain: RRRVSAILEFISRTQWELSEDQSDREEFVRFVENQHFVEKVDTIYNGYNESLSMMDDLTRELLLWEKKYSNNTNAIQ
With B5 the binding [9] was “no binding” and the binding [10] was “binds”.

B6: Gal4 TAD-Cti6_(450-506) V467A (domain or fragment, UniProt Q08923 450-506)
chain: DQSDREEFVRFVENQHFAEKVDTIYNGYNESLSMMDDLTRELLLWEKKYSNNTNAIQ
In the case of B6, the binding [10] is reported as “no binding”.

B7: Gal4 TAD-Cti6_(450-506) L481A (domain or fragment, UniProt Q08923 450-506)
chain: DQSDREEFVRFVENQHFVEKVDTIYNGYNESASMMDDLTRELLLWEKKYSNNTNAIQ
B7 was tested, and the binding [10] was “no binding”.

B8: Gal4 TAD-Cti6_(450-506) L491A L492A L493A (domain or fragment, UniProt Q08923 450-506)
chain: DQSDREEFVRFVENQHFVEKVDTIYNGYNESLSMMDDLTREAAAWEKKYSNNTNAIQ
In the case of B8, the binding [10] is reported as “no binding”.

B9: HA-tagged Sin3 (aa 601–950) (domain or fragment, UniProt P22579 601-950)
chain: TSLTEQYAPSSIQHQQQHPQSISPIANTQYGDIPVRPEIDLDPSIVPVVPEPTEPIENNISLNEEVTFFEKAKRYIGNKHLYTEFLKILNLYSQDILDLDDLVEKVDFYLGSNKELFTWFKNFVGYQEKTKCIENIVHEKHRLDLDLCEAFGPSYKRLPKSDTFMPCSGRDDMCWEVLNDEWVGHPVWASEDSGFIAHRKNQYEETLFKIEEERHEYDFYIESNLRTIQCLETIVNKIENMTENEKANFKLPPGLGHTSMTIYKKVIRKVYDKERGFEIIDALHEHPAVTAPVVLKRLKQKDEEWRRAQREWNKVWRELEQKVFFKSLDHLGLTFKQADKKLLTTKQLIS
B9 was tested, and the binding [12] was “no binding”.

B10: HA-tagged Sin3 (aa 801–1100) (domain or fragment, UniProt P22579 801-1100)
chain: NQYEETLFKIEEERHEYDFYIESNLRTIQCLETIVNKIENMTENEKANFKLPPGLGHTSMTIYKKVIRKVYDKERGFEIIDALHEHPAVTAPVVLKRLKQKDEEWRRAQREWNKVWRELEQKVFFKSLDHLGLTFKQADKKLLTTKQLISEISSIKVDQTNKKIHWLTPKPKSQLDFDFPDKNIFYDILCLADTFITHTTAYSNPDKERLKDLLKYFISLFFSISFEKIEESLYSHKQNVSESSGSDDGSSIASRKRPYQQEMSLLDILHRSRYQKLKRSNDEDGKVPQLSEPPEEEPNT
For B10, the binding [12] was “no binding”.

B11: HA-tagged Sin3 (aa 1101–1536) (domain or fragment, UniProt P22579 1101-1536)
chain: IEEEELIDEEAKNPWLTGNLVEEANSQGIIQNRSIFNLFANTNIYIFFRHWTTIYERLLEIKQMNERVTKEINTRSTVTFAKDLDLLSSQLSEMGLDFVGEDAYKQVLRLSRRLINGDLEHQWFEESLRQAYNNKAFKLYTIDKVTQSLVKHAHTLMTDAKTAEIMALFVKDRNASTTSAKDQIIYRLQVRSHMSNTENMFRIEFDKRTLHVSIQYIALDDLTLKEPKADEDKWKYYVTSYALPHPTEGIPHEKLKIPFLERLIEFGQDIDGTEVDEEFSPEGISVSTLKIKIQPITYQLHIENGSYDVFTRKATNKYPTIANDNTQKGMVSQKKELISKFLDCAVGLRNNLDEAQKLSMQKKWENLKDSIAKTSAGNQGIESETEKGKITKQEQSDNLDSSTASVLPASITTVPQDDNIETTGNTESSDKGAKIQ
For B11, the binding [12] was “no binding”.
